Measured values from PubChem BioAssay AID1508623 (National Center for Advancing Translational Sciences (NCATS), 2021).
Hit rate of the full screen: of about 48,000 compounds, about 450 (0.94%) were called active. Not shown: some 19% with an inconclusive outcome. Calls follow the shape of the dose curve; as a rule, active = well fitted inhibition curve with a large enough effect; inconclusive = small, poorly fitted or top-dose-only effect; inactive = no such curve, though single readings can be large or run the other way. The list shows a part of the results.

Experiment: Primary qHTS for Identification of Small Molecule Inhibitors of Huntingtin Promoter Activity; also: nearly all actives have a fitted effect of over 50% in size
Settings: HEK293 HTT promoter firefly luciferase reporter (activity 0% = vehicle and -100% = no light), 24 h; series mostly up to 57.5 µM; activity change, negative = inhibition: at the top concentration
Summary of the method: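 Luminescence was read after Dual-Glo reagent and a 10 min room-temperature incubation. Values were normalized to vehicle (0% activity) and zero RLU (-100% activity). Reporter HEK293 cells had been exposed to compounds (up to 57.5 uM final) for 24 h.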

Activity change, negative = inhibition, inactive:
COc1ccc(CCNC(=O)C(=O)Nc2ccc(C)c(C)c2)cc1 14%
O=C(Nc1ccc(S(=O)(=O)N2CCOCC2)cc1)c1cc(Cl)ccc1NS(=O)(=O)c1ccc(Cl)s1 -4.72%
N[C@@H](Cc1cc(I)c(O)c(I)c1)C(=O)O 0.296%
O=C(CSc1nc2c(c(=O)[nH]1)CCCC2)Nc1ccccc1C(F)(F)F -25.7%
CC(C)c1ccc(S(=O)(=O)c2cn(CC(=O)Nc3ccc(F)cc3)c3ccccc3c2=O)cc1 -19.7%
CCc1ccccc1NC(=O)Cn1c(=O)n(Cc2ccccc2)c(=O)c2c(C)c(C(=O)N(C)C)sc21 -9.76%
CCOc1ccc(NC(=O)Cn2c(=O)cc(C)c3c(C)nn(C)c32)cc1 -24.1%
Cc1csc2nc(-c3cccc(NS(C)(=O)=O)c3)cn12 15.1%
Cc1ccccc1CN1c2ccccc2-c2nc(SCC(=O)c3ccc(Cl)cc3)ncc2S1(=O)=O -14%
COCCCNC(=O)CCCN1C(=O)CCn2nc(-c3cccn3C)cc21 8.8%
Cc1ccc(-c2nc(C)c(CCNC(=O)C(=O)Nc3cc(C)ccc3C)s2)cc1 5.94%
Cc1csc2nc(-c3ccc(NS(=O)(=O)c4cccc(F)c4)cc3)cn12 -15.5%
Cc1ccc(-c2n[nH]c3c2C(c2ccccc2Cl)N(c2ccc(C(=O)O)cc2)C3=O)cc1 (stereo unspecified) -28.3%
CCCOc1ccc(C2=NC(c3ccncc3)=Nc3ccc(C)cc3N2)cc1 -24.6%
Cc1oc2ccc(NS(=O)(=O)c3ccc(F)cc3)cc2c1C(=O)O -4.52%
CSc1ncc(Cl)c(C(=O)Nc2c(C(=O)Nc3cccc(C)c3)oc3ccccc23)n1 -8.01%
Cc1ccccc1-c1noc(-c2ccc(N3CCC(C)CC3)c([N+](=O)[O-])c2)n1 -2.86%
O=C(Nc1c(C(=O)c2ccccc2)oc2ccccc12)c1ccc(F)cc1 -1.15%
CC(C)c1nc2ccc(C(=O)NCCCN3CCN(c4ccccc4)CC3)cc2o1 -28.2%
O=C(CN1CCN(Cc2ccc(F)cc2Cl)C1=O)NCCc1ccc(Cl)cc1 -11.3%
CCOc1ccc(C(=O)Nc2ccc3oc(-c4cccc5ccccc45)nc3c2)cc1 -13.2%
COc1ccc(OC)c(NC(=O)N2CC(C)Oc3ccc(C)cc32)c1 (stereo unspecified) -16.5%
Cc1ccc(C(=O)c2cn(CC(=O)NCc3ccccc3)c3nc(C)ccc3c2=O)cc1 17.5%
Cc1cc(C)n(CC(=O)Nc2cc(F)ccc2F)c(=O)c1C#N -9.34%
COc1ccc(CCN(C)CCCOc2ccc(S(=O)(=O)c3[nH]c4ccccc4c3C(C)C)cc2)cc1OC 7.76%
COc1cccc(C(=O)Nc2ccc3nc4n(c(=O)c3c2)CCCCC4)c1 26.8%
Cc1ccc(O)c(Nc2nc3ccccc3c3nncn23)c1 -15.3%
CCOc1ccc(-c2nc(C(N)=O)c3c(n2)n(-c2ccc4c(c2)OCO4)c(=O)n3CC)cc1 -7.28%
CC1CNc2c(cccc2S(=O)(=O)N[C@@H](CCCN=C(N)N)C(=O)N2CC[C@@H](C)C[C@@H]2C(=O)O)C1 (stereo partly specified) -0.757%
CC1=C(C(N)=O)C(c2ccccc2F)n2nc(-c3ccc(Cl)cc3)nc2N1 (stereo unspecified) 6.58%
COC(=O)c1cc(S(=O)(=O)N2CCN(c3cc(Cl)ccc3C)CC2)c[nH]1 -5.06%
O=S(=O)(NCC(c1ccco1)N1CCOCC1)c1ccc(F)cc1 (stereo unspecified) -3.09%
Cc1cc(C)c2oc(C(=O)Nc3c(C(=O)c4ccccc4)oc4ccccc34)cc(=O)c2c1 15.4%
COc1ccccc1CNc1ncnc2c1c(-c1ccccc1)cn2-c1ccc(Br)cc1 -23.8%
Cc1ccc(C(=O)NCCC(C)C)cc1NC(=O)c1nsc2ccccc12 -16.7%
COc1cc2c(=O)c(C(=O)c3ccc(F)cc3)cn(Cc3cccc(F)c3)c2cc1OC -7.01%
CCN(CC)c1ccc(NC(=O)Cn2c3ncccc3c(=O)n2-c2ccccc2)c(C)c1 -6.41%
Cc1ccccc1CNC(=O)C(=O)NCC(c1ccc2c(c1)OCO2)N1CCOCC1 (stereo unspecified) -14.5%
CN(CCCNC(=O)Cn1ncc2c([nH]c3ccccc32)c1=O)Cc1ccccc1 0.0992%
Cc1ccc2c(c1)-c1c(cnn1CC(=O)N1CCN(c3cc(C)ccc3C)CC1)CO2 -17.6%
Cc1ccccc1S(=O)(=O)Cc1ccc(C(=O)NCCc2ccccc2)o1 13.2%
CC1CCN(c2csc3ccc(F)cc3c2=O)CC1 18.3%
O=C(NCc1ccc(Cl)cc1)c1ccc(CNS(=O)(=O)c2ccc(F)cc2)cc1 -2.55%
COCCc1nn2c(=O)cc(COC(=O)c3ccco3)nc2s1 -4.91%
CCC(Sc1nc2cc(OC)c(OC)cc2c(=O)n1Cc1ccc(OC)cc1)C(=O)NCCOC (stereo unspecified) -7.65%
CC(=O)c1ccc(NC(=O)c2cc(S(=O)(=O)N3CCOCC3)ccc2C)cc1 -34.7%
CC(C)(C)c1ccc(C(=O)Nc2ccc(OCc3cc(=O)n4ccsc4n3)cc2)cc1 -9.2%
COc1ccc(CCNC(=O)c2ccc(Cn3c(=O)c4ccccc4n(Cc4ccc(F)cc4Cl)c3=O)cc2)cc1OC 23%
CCN1CCN(C(=O)c2ccc3c(c2)N(Cc2ccccc2)C(=O)c2ccccc2S3(=O)=O)CC1 2.55%
CCOc1ccc(-c2cn3c(n2)sc2cc(C(=O)N4CCCC(C)C4)ccc23)cc1 (stereo unspecified) 13.7%
Cc1nc(N2CCOCC2)c2c(C(=O)N(C)c3ccccc3)c(C)oc2n1 -5.26%
CC(C)Cc1nn2c(=O)cc(COC(=O)c3cccc(NS(C)(=O)=O)c3)nc2s1 -5.91%
COc1ccc(CNC(=O)CCCN2C(=O)CCn3nc(-c4cn(C)c5ccccc45)cc32)cc1 -23.3%
COc1ccc(OC)c(NC(=O)Cn2ncc3c2-c2ccccc2OC3)c1 -17.1%
O=C(NCCC1=CCCCC1)C1CCN(C(=O)N2CCOc3ccccc32)CC1 -29.4%
O=C(NCCc1ccc(Cl)cc1)C1(c2cccs2)CCOCC1 -14.9%
Cc1ccc(-n2c(=O)c3cccnc3n2CC(=O)Nc2ccc(C)cc2Cl)cc1 10.3%
Cc1cccc(-c2nc(CS(=O)CC(=O)NCc3ccc(Cl)cc3)c(C)o2)c1 (stereo unspecified) -11.6%
O=C(NCCc1ccccc1)c1ccc(CSc2nc3cccnc3n2Cc2ccccc2F)cc1 -22.6%
COc1cccc(-c2cn3c(n2)sc2cc(C(=O)NCc4ccccc4F)ccc23)c1 3.99%
CCOC(=O)c1cc(-c2ccccc2)n(CC(=O)NCc2ccc(C)cc2)c1C 1.32%
